The values below come from the supplement of paper PMC7125110.

The labels stand for the following.
B1: glmS ribozyme (parent)
chain: AUAAAAGCGCCAGAACUACAGAAAUGUAGUUGACGAGGAGGAGGUUUAUCGAAUUUUCGGCGGAUGCCUCCAAA

± gives the standard error. For part of these data: Variants at the background level are over-represented here.

Holding throughout (settings): with glucosamine-6-phosphate
Variants of B1 are the subject of series [1]. Description: self-cleavage kobs at 160 uM GlcN6P; higher = faster cleavage; RNA array. Put shortly: (§1)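 E. coli RNA polymerase transcribed barcoded ribozyme variants in situ on sequenced MiSeq chips, which were tracked via a hybridised Cy3 probe at 37 °C. Tiles were imaged over ~14 h after glucosamine-6-phosphate (40 μM to 10 mM) in HEPES/KCl/Mg(OAc)2 buffer was flowed in. Normalised per-tile medians were fit to one- or two-exponential decays for kobs, and kcat and KM came from weighted Michaelis–Menten fits.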

Series [2] covers variants of B1. Description: self-cleavage kobs at 2500 uM GlcN6P; higher = faster cleavage; RNA array. The essentials:
as §1

Series [3] covers variants of B1. Description: self-cleavage kobs at 10000 uM GlcN6P; higher = faster cleavage; RNA array. Put shortly:
as §1

Variants of B1 are the subject of series [4]. As to the kind of experiment: self-cleavage kobs at 640 uM GlcN6P; higher = faster cleavage; RNA array. Put shortly: as §1

As for G13U U47G A52C, in the series with glucosamine-6-phosphate [1], the “self-cleavage kobs at 160 uM GlcN6P” value was below 1e-05 s⁻¹. Further, the “self-cleavage kobs at 2500 uM GlcN6P” value with glucosamine-6-phosphate [2] was below 1e-05 s⁻¹.

As to C8U C70A, the “self-cleavage kobs at 160 uM GlcN6P” value with glucosamine-6-phosphate [1] is below 1e-05 s⁻¹.

Consider A14C U30C, for which the “self-cleavage kobs at 160 uM GlcN6P” value in the series with glucosamine-6-phosphate [1] was below 1e-05 s⁻¹.

As for G32U G51C, the “self-cleavage kobs at 160 uM GlcN6P” value with glucosamine-6-phosphate [1] is below 1e-05 s⁻¹. In addition, the “self-cleavage kobs at 2500 uM GlcN6P” value with glucosamine-6-phosphate [2] was below 1e-05 s⁻¹.

As for C8A C70G, the “self-cleavage kobs at 160 uM GlcN6P” value with glucosamine-6-phosphate [1] was below 1e-05 s⁻¹.

Regarding A33C G35C U45G A64C, in the series with glucosamine-6-phosphate [1], the “self-cleavage kobs at 160 uM GlcN6P” value is below 1e-05 s⁻¹. In the series with glucosamine-6-phosphate [2], the “self-cleavage kobs at 2500 uM GlcN6P” value is below 1e-05 s⁻¹.

With G9U U30A, the “self-cleavage kobs at 160 uM GlcN6P” value with glucosamine-6-phosphate [1] is below 1e-05 s⁻¹. The “self-cleavage kobs at 2500 uM GlcN6P” value in the series with glucosamine-6-phosphate [2] is below 1e-05 s⁻¹.

G29A A39G G44A C70A: in the series with glucosamine-6-phosphate [1], the “self-cleavage kobs at 160 uM GlcN6P” value was below 1e-05 s⁻¹.

With U30G G35C G60U C61A, the “self-cleavage kobs at 160 uM GlcN6P” value with glucosamine-6-phosphate [1] is below 1e-05 s⁻¹.

As for C8U G32C G38U A53C C61U C70U, the “self-cleavage kobs at 160 uM GlcN6P” value with glucosamine-6-phosphate [1] was below 1e-05 s⁻¹. The “self-cleavage kobs at 2500 uM GlcN6P” value with glucosamine-6-phosphate [2] is below 1e-05 s⁻¹.

On to G13C U55G, for which the “self-cleavage kobs at 160 uM GlcN6P” value with glucosamine-6-phosphate [1] is below 1e-05 s⁻¹.

Take C8G G9A C50U: the “self-cleavage kobs at 160 uM GlcN6P” value with glucosamine-6-phosphate [1] was below 1e-05 s⁻¹. For the same variant, the “self-cleavage kobs at 2500 uM GlcN6P” value with glucosamine-6-phosphate [2] was below 1e-05 s⁻¹. Besides, in the series with glucosamine-6-phosphate [3], the “self-cleavage kobs at 10000 uM GlcN6P” value is below 1e-05 s⁻¹.

Consider A6G C11U A39C, for which, in the series with glucosamine-6-phosphate [1], the “self-cleavage kobs at 160 uM GlcN6P” value was below 1e-05 s⁻¹.

On to A14U C61G, for which, in the series with glucosamine-6-phosphate [1], the “self-cleavage kobs at 160 uM GlcN6P” value was below 1e-05 s⁻¹.

With C8U G41U C58U C68A C70G, the “self-cleavage kobs at 160 uM GlcN6P” value in the series with glucosamine-6-phosphate [1] is below 1e-05 s⁻¹.

In the case of A15C G60C C61U, the “self-cleavage kobs at 160 uM GlcN6P” value with glucosamine-6-phosphate [1] is below 1e-05 s⁻¹.

C11A A33U U45G C61A: the “self-cleavage kobs at 160 uM GlcN6P” value in the series with glucosamine-6-phosphate [1] is below 1e-05 s⁻¹.

Regarding A14G U49A A64G G66U, in the series with glucosamine-6-phosphate [1], the “self-cleavage kobs at 160 uM GlcN6P” value was below 1e-05 s⁻¹.

In the case of G32C C68U, the “self-cleavage kobs at 160 uM GlcN6P” value with glucosamine-6-phosphate [1] was below 1e-05 s⁻¹.

In the case of G13U U49A, in the series with glucosamine-6-phosphate [1], the “self-cleavage kobs at 160 uM GlcN6P” value was below 1e-05 s⁻¹. In addition, in the series with glucosamine-6-phosphate [3], the “self-cleavage kobs at 10000 uM GlcN6P” value was below 1e-05 s⁻¹.

For A33C G38C G51C, in the series with glucosamine-6-phosphate [1], the “self-cleavage kobs at 160 uM GlcN6P” value is below 1e-05 s⁻¹.

For the variant U30C G41C U49G G51U C58A, in the series with glucosamine-6-phosphate [1], the “self-cleavage kobs at 160 uM GlcN6P” value is below 1e-05 s⁻¹.

With C70U C71A, the “self-cleavage kobs at 640 uM GlcN6P” value in the series with glucosamine-6-phosphate [4] stood at 0.00013 ± 1.4e-05 s⁻¹. Moreover, in the series with glucosamine-6-phosphate [1], the “self-cleavage kobs at 160 uM GlcN6P” value was 5.23e-05 ± 9.7e-06 s⁻¹.

For the variant G13C G38U G66U, the “self-cleavage kobs at 160 uM GlcN6P” value with glucosamine-6-phosphate [1] was below 1e-05 s⁻¹.

As for C19A G44U, the “self-cleavage kobs at 160 uM GlcN6P” value in the series with glucosamine-6-phosphate [1] is below 1e-05 s⁻¹.

Consider G9U A39C, for which, in the series with glucosamine-6-phosphate [1], the “self-cleavage kobs at 160 uM GlcN6P” value was below 1e-05 s⁻¹. In addition, the “self-cleavage kobs at 2500 uM GlcN6P” value with glucosamine-6-phosphate [2] was below 1e-05 s⁻¹. The “self-cleavage kobs at 10000 uM GlcN6P” value with glucosamine-6-phosphate [3] is below 1e-05 s⁻¹.

For C11G C16U, in the series with glucosamine-6-phosphate [1], the “self-cleavage kobs at 160 uM GlcN6P” value was below 1e-05 s⁻¹.

On to C8A G60A, for which, in the series with glucosamine-6-phosphate [1], the “self-cleavage kobs at 160 uM GlcN6P” value is below 1e-05 s⁻¹.

Take C61G A64G C71G: the “self-cleavage kobs at 640 uM GlcN6P” value in the series with glucosamine-6-phosphate [4] worked out at 0.000141 ± 3.7e-05 s⁻¹.

For C8U G41A C67A, the “self-cleavage kobs at 160 uM GlcN6P” value with glucosamine-6-phosphate [1] is below 1e-05 s⁻¹. Besides, in the series with glucosamine-6-phosphate [2], the “self-cleavage kobs at 2500 uM GlcN6P” value was below 1e-05 s⁻¹.

For C16G G37A G43C, the “self-cleavage kobs at 160 uM GlcN6P” value in the series with glucosamine-6-phosphate [1] is below 1e-05 s⁻¹. The “self-cleavage kobs at 2500 uM GlcN6P” value with glucosamine-6-phosphate [2] is below 1e-05 s⁻¹.

For the variant G32C G66A, the “self-cleavage kobs at 160 uM GlcN6P” value in the series with glucosamine-6-phosphate [1] is below 1e-05 s⁻¹.

In the case of G9U A14U A48G, in the series with glucosamine-6-phosphate [1], the “self-cleavage kobs at 160 uM GlcN6P” value was below 1e-05 s⁻¹. In the series with glucosamine-6-phosphate [2], the “self-cleavage kobs at 2500 uM GlcN6P” value was below 1e-05 s⁻¹.

For the variant C10U G32U G40U, in the series with glucosamine-6-phosphate [1], the “self-cleavage kobs at 160 uM GlcN6P” value is below 1e-05 s⁻¹.

On to A6C A53U G62U C71G, for which the “self-cleavage kobs at 160 uM GlcN6P” value with glucosamine-6-phosphate [1] was below 1e-05 s⁻¹.

C16G A39U U54C G62A G63U C70A: in the series with glucosamine-6-phosphate [1], the “self-cleavage kobs at 160 uM GlcN6P” value is below 1e-05 s⁻¹. The “self-cleavage kobs at 2500 uM GlcN6P” value with glucosamine-6-phosphate [2] is below 1e-05 s⁻¹.
